Laboratory results published in patent US12097241B2, “Methods of treating kidney failure, and/or improving or stablizing renal function using modified relaxin polypeptides” (BRISTOL-MYERS SQUIBB COMPANY, priority 2017, dated 2024).
At least one peptide structure holds a part that was inferred or is arguable (an end, a ring closure or a residue). Marks after values point to notes of the source that are not given here.

Assay: Rat renal blood flow studies
Format: in vivo, Sprague Dawley rats
Conditions: anesthetized male Sprague Dawley rats, 1 mg/kg intravenously, renal blood flow recorded for 45 min
Method: Male Sprague Dawley rats (˜250-300 g) were anesthetized with sodium pentobarbital (50 mg/kg), the trachea was cannulated with PE-205 tubing to maintain airway patency, and temperature was maintained at 37° C. with a heated surgical plate. A 1.4 F pressure catheter (Millar Inc., Houston, TX) was advanced into the right carotid artery to measure aortic blood pressure. The right jugular vein was cannulated with PE-50 tubing for administration of test articles. The left kidney was exposed by a retroperitoneal incision, and a Doppler flow probe (Model 0.5 VB, Transonic System Inc., Ithaca, NY) was attached to the left renal artery to monitor blood flow. Sodium pentobarbital (15 mg/kg, intraperitoneal) was supplemented after completion of these surgical procedures. Following a 10-15 min equilibration, the relaxin was administered at 1 mg/kg intravenously in a dosing volume of 0.15 to 1.82 mL/kg over 30 seconds via an infusion pump (Harvard Apparatus, Holliston, MA). Blood pressure, heart rate and renal blood flow were continuously recorded for 45 min after relaxin administration using a Millar MPVS Ultra Signal Conditioning unit connected to a desktop computer running LabChart 7-Pro data acquisition software (ADInstruments, Dunedin, New Zealand) (Table 5). Table 5. Rat renal blood flow changes (abbreviations as in Table 3).

CC[C@H](C)[C@@H]1NC(=O)[C@H](C)NC(=O)[C@H]([C@@H](C)CC)NC(=O)[C@H](CCC(N)=O)NC(=O)[C@H](C)NC(=O)[C@H](CCCNC(=N)N)NC(=O)[C@H](C(C)C)NC(=O)[C@H](CC(C)C)NC(=O)[C@H](CCC(=O)O)NC(=O)[C@H](CCCNC(=N)N)NC(=O)CNC(=O)[C@@H](NC(=O)[C@H](CC(C)C)NC(=O)[C@H](CCCCN)NC(=O)[C@@H](NC(=O)[C@@H](NC(=O)[C@H](CCC(=O)O)NC(=O)[C@H](CCC(=O)O)NC(=O)[C@H](CCSC)NC(=O)[C@H](Cc2c[nH]c3ccccc23)NC(=O)[C@H](CO)NC(=O)[C@H](C)N)C(C)C)[C@@H](C)CC)CSSC[C@@H]2NC(=O)[C@@H](NC(=O)[C@H](CCCCN)NC(=O)[C@H](CC(N)=O)NC(=O)[C@H](C)NC(=O)[C@H](CC(C)C)NC(=O)[C@H](C)NC(=O)[C@H](CO)NC(=O)[C@H](Cc3ccc(O)cc3)NC(=O)[C@H](CC(C)C)NC(=O)[C@@H](N)Cc3ccc(/C(C)=N/OCCNC(=O)CNC(=O)[C@H](CO)NC(=O)[C@H](Cc4c[nH]cn4)NC(=O)[C@H](Cc4c[nH]cn4)NC(=O)[C@H](Cc4c[nH]cn4)NC(=O)[C@H](Cc4c[nH]cn4)NC(=O)[C@H](Cc4c[nH]cn4)NC(=O)CNC(=O)[C@H](CO)NC(=O)CC[C@H](NC(=O)CCCCCCCCCCCCC(=O)O)C(=O)O)cc3)CSSC[C@H](NC(=O)CNC(=O)[C@H](C(C)C)NC(=O)[C@H](Cc3c[nH]cn3)NC2=O)C(=O)N[C@@H]([C@@H](C)O)C(=O)N[C@@H](CCCCN)C(=O)N[C@@H](CCCNC(=N)N)C(=O)N[C@@H](CO)C(=O)N[C@@H](CC(C)C)C(=O)N[C@@H](C)C(=O)N[C@@H](CCCNC(=N)N)C(=O)N[C@@H](Cc2ccccc2)C(=O)N[C@H](C(=O)O)CSSC[C@@H](C(=O)NCC(=O)N[C@@H](CCSC)C(=O)N[C@@H](CO)C(=O)N[C@H](C(=O)N[C@@H](Cc2c[nH]c3ccccc23)C(=O)N[C@@H](CO)C(=O)O)[C@@H](C)O)NC1=O [AQ1-GSHHHHHGS-Glu^γ-C13-COOH]
% change in RBF over baseline: +16%

CC[C@H](C)[C@@H]1NC(=O)[C@H](C)NC(=O)[C@H]([C@@H](C)CC)NC(=O)[C@H](CCC(N)=O)NC(=O)[C@H](C)NC(=O)[C@H](CCCNC(=N)N)NC(=O)[C@H](C(C)C)NC(=O)[C@H](CC(C)C)NC(=O)[C@H](CCC(=O)O)NC(=O)[C@H](CCCNC(=N)N)NC(=O)CNC(=O)[C@@H](NC(=O)[C@H](CC(C)C)NC(=O)[C@H](CCCCN)NC(=O)[C@@H](NC(=O)[C@@H](NC(=O)[C@H](CCC(=O)O)NC(=O)[C@H](CCC(=O)O)NC(=O)[C@H](CCSC)NC(=O)[C@H](Cc2c[nH]c3ccccc23)NC(=O)[C@H](CO)NC(=O)[C@H](C)N)C(C)C)[C@@H](C)CC)CSSC[C@@H]2NC(=O)[C@@H](NC(=O)[C@H](CCCCN)NC(=O)[C@H](CC(N)=O)NC(=O)[C@H](C)NC(=O)[C@H](CC(C)C)NC(=O)[C@H](C)NC(=O)[C@H](CO)NC(=O)[C@H](Cc3ccc(O)cc3)NC(=O)[C@H](CC(C)C)NC(=O)[C@@H](N)Cc3ccc(C(C)=NOCCNC(=O)[C@H](CCCCN)NC(=O)[C@H](CCCCN)NC(=O)[C@H](CCCCN)NC(=O)CNC(=O)CNC(=O)CNC(=O)CC[C@H](NC(=O)CCCCCCCCCCCCC(=O)O)C(=O)O)cc3)CSSC[C@H](NC(=O)CNC(=O)[C@H](C(C)C)NC(=O)[C@H](Cc3c[nH]cn3)NC2=O)C(=O)N[C@@H]([C@@H](C)O)C(=O)N[C@@H](CCCCN)C(=O)N[C@@H](CCCNC(=N)N)C(=O)N[C@@H](CO)C(=O)N[C@@H](CC(C)C)C(=O)N[C@@H](C)C(=O)N[C@@H](CCCNC(=N)N)C(=O)N[C@@H](Cc2ccccc2)C(=O)N[C@H](C(=O)O)CSSC[C@@H](C(=O)NCC(=O)N[C@@H](CCSC)C(=O)N[C@@H](CO)C(=O)N[C@H](C(=O)N[C@@H](Cc2c[nH]c3ccccc23)C(=O)N[C@@H](CO)C(=O)O)[C@@H](C)O)NC1=O [AQ1-KKKGGG-Glu^γ-C13-COOH]
% change in RBF over baseline: +10^b %
